The values that follow come from the supplement of paper PMC12217912.

The list shows a part of the results. The full chains were built here from the parent and the listed change. Inactive controls read about 0.05.

First the molecules themselves.
B1: TEV protease; numbered along this chain (parent)
chain: MGESLFKGPRDYNPISSSICHLTNESDGHTTSLYGIGFGPFIITNKHLFRRNNGTLVVQSLHGVFKVKDTTTLQQHLVDGRDMIIIRMPKDFPPFPQKLKFREPQREERICLVTTNFQTKSMSSMVSDTSCTFPSGDGIFWKHWIQTKDGQCGSPLVSTRDGFIVGIHSASNFTNTNNYFTSVPKNFMELLTNQEAQQWVSGWRLNADSVLWGGHKVFMVKPEEPFQPVKEATQL
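Note: Bxb1 expression induced with 0.2% (w/v) L-rhamnose at OD600 near 0.5, cultures sampled hourly, flipped fraction per protease–substrate barcode pair counted by paired-end Illumina sequencing.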

The test covers variants of B1. The test can be described thus: raw area under fraction-flipped curve 0-4 h after induction (AUC4h, not background-subtracted), DNA-recorder readout of cleavage of the substrate (dimensionless); higher = more cleavage of the substrate by the protease variant. To be noted: temperature: 34 °C; time window: 0-4 h after rhamnose induction.
On to G162N, for which the “area with substrate EGLYFQS” value amounted to 0.0679, the “area with substrate EILYFQS” value is 0.0498 and the “area with substrate EWLYFQS” value is 0.084.
Consider N186H, for which the “area with substrate EILYFQS” value stood at 0.118.
On to V58L, for which the “area with substrate EGLYFQS” value stood at 0.0833, the “area with substrate EHLYFQS” value was 0.112, the “area with substrate EQLYFQS” value came out at 0.108 and the “area with substrate ESLYFQS” value was 0.101. For the same variant, the “area with substrate EVLYFQS” value was 0.0931 and the “area with substrate EYLYFQS” value stood at 0.109.
V58S: the “area with substrate EKLYFQS” value came out at 0.0731, the “area with substrate ELLYFQS” value was 0.0772, the “area with substrate ESLYFQS” value came to 0.0973 and the “area with substrate EVLYFQS” value worked out at 0.0049.
As for D69F, the “area with substrate EGLYFQS” value is 0.0548, the “area with substrate EILYFQS” value amounted to 0.107, the “area with substrate EMLYFQS” value was 0.0765 and the “area with substrate EPLYFQS” value amounted to 0.0888. Further, the “area with substrate EQLYFQS” value worked out at 0.0951 and the “area with substrate EVLYFQS” value amounted to 0.0725.
On to T233W, for which the “area with substrate EHLYFQS” value is 0.0642, the “area with substrate EILYFQS” value came to 0.072, the “area with substrate EKLYFQS” value is 0.122 and the “area with substrate EQLYFQS” value turned out to be 0.103. In addition, the “area with substrate ESLYFQS” value came out at 0.124 and the “area with substrate EVLYFQS” value was determined as 0.0968.
For D137T, the “area with substrate EMLYFQS” value was 0.0866, the “area with substrate EQLYFQS” value came to 0.0896, the “area with substrate ESLYFQS” value is 0.0852 and the “area with substrate EVLYFQS” value came to 0.131.
As to D137H, the “area with substrate EGLYFQS” value is 0.0999, the “area with substrate EHLYFQS” value turned out to be 0.0995, the “area with substrate EKLYFQS” value turned out to be 0.123 and the “area with substrate ELLYFQS” value was 0.0867. In addition, the “area with substrate EPLYFQS” value worked out at 0.124, the “area with substrate EQLYFQS” value amounted to 0.103, the “area with substrate ESLYFQS” value was determined as 0.0979 and the “area with substrate EVLYFQS” value stood at 0.0716.
M83L: the “area with substrate EGLYFQS” value stood at 0.0895, the “area with substrate ELLYFQS” value was found to be 0.0988, the “area with substrate EQLYFQS” value stood at 0.122 and the “area with substrate ERLYFQS” value amounted to 0.0877. Besides, the “area with substrate ESLYFQS” value worked out at 0.0918, the “area with substrate EVLYFQS” value stood at 0.0882 and the “area with substrate EWLYFQS” value worked out at 0.0806.
On to D79E, for which the “area with substrate EKLYFQS” value worked out at 0.114, the “area with substrate ELLYFQS” value turned out to be 0.0904, the “area with substrate EMLYFQS” value came to 0.104 and the “area with substrate ESLYFQS” value is 0.101. Further, the “area with substrate EVLYFQS” value is 0.0864.
Consider E195T, for which the “area with substrate EILYFQS” value came to 0.117, the “area with substrate EKLYFQS” value worked out at 0.0946, the “area with substrate EMLYFQS” value turned out to be 0.098 and the “area with substrate EPLYFQS” value turned out to be 0.128. Further, the “area with substrate EQLYFQS” value stood at 0.109, the “area with substrate EWLYFQS” value stood at 0.0901 and the “area with substrate EYLYFQS” value turned out to be 0.102.
As to E195L, the “area with substrate EFLYFQS” value was found to be 0.0907, the “area with substrate EKLYFQS” value worked out at 0.177, the “area with substrate ELLYFQS” value stood at 0.0598 and the “area with substrate EMLYFQS” value stood at 0.0951. In addition, the “area with substrate EQLYFQS” value was 0.101 and the “area with substrate EVLYFQS” value was 0.116.
On to Q97R, for which the “area with substrate EPLYFQS” value stood at 0.14.
For the variant Q97E, the “area with substrate EKLYFQS” value worked out at 0.111, the “area with substrate EQLYFQS” value worked out at 0.136, the “area with substrate ERLYFQS” value was found to be 0.0745 and the “area with substrate ESLYFQS” value was found to be 0.124. Moreover, the “area with substrate EVLYFQS” value came to 0.123.
Q97N: the “area with substrate EKLYFQS” value came out at 0.11, the “area with substrate EVLYFQS” value came out at 0.0919 and the “area with substrate EWLYFQS” value is 0.085.
On to K7S, for which the “area with substrate EQLYFQS” value worked out at 0.11 and the “area with substrate EVLYFQS” value came to 0.105.
G138M: the “area with substrate EILYFQS” value is 0.0835, the “area with substrate ELLYFQS” value turned out to be 0.0079, the “area with substrate EMLYFQS” value was 0.0634 and the “area with substrate EQLYFQS” value is 0.114. In addition, the “area with substrate ESLYFQS” value stood at 0.0811 and the “area with substrate ETLYFQS” value is 0.0791.
Take G138F: the “area with substrate EHLYFQS” value worked out at 0.11, the “area with substrate EKLYFQS” value was 0.0618, the “area with substrate EPLYFQS” value came out at 0.127 and the “area with substrate ERLYFQS” value was 0.102. Moreover, the “area with substrate ESLYFQS” value was found to be 0.141.
V229R: the “area with substrate EFLYFQS” value worked out at 0.0847, the “area with substrate EHLYFQS” value turned out to be 0.0978, the “area with substrate EMLYFQS” value came out at 0.0805 and the “area with substrate EQLYFQS” value was determined as 0.151. The “area with substrate ERLYFQS” value amounted to 0.103, the “area with substrate ESLYFQS” value was found to be 0.116, the “area with substrate EWLYFQS” value worked out at 0.0998 and the “area with substrate EYLYFQS” value was determined as 0.105.
Consider M125W, for which the “area with substrate EILYFQS” value amounted to 0.106, the “area with substrate EKLYFQS” value turned out to be 0.0643 and the “area with substrate ERLYFQS” value stood at 0.111.
Turning to L5H, the “area with substrate EGLYFQS” value was 0.146, the “area with substrate EILYFQS” value came out at 0.109, the “area with substrate ERLYFQS” value is 0.102 and the “area with substrate ESLYFQS” value worked out at 0.117. Further, the “area with substrate EVLYFQS” value amounted to 0.11 and the “area with substrate EWLYFQS” value amounted to 0.0757.
In the case of N116T, the “area with substrate EKLYFQS” value was determined as 0.11, the “area with substrate EVLYFQS” value is 0.103 and the “area with substrate EWLYFQS” value stood at 0.11.
As for N116W, the “area with substrate EGLYFQS” value came to 0.0805, the “area with substrate EHLYFQS” value was 0.0981, the “area with substrate EKLYFQS” value came to 0.108 and the “area with substrate EMLYFQS” value worked out at 0.0903. The “area with substrate EPLYFQS” value turned out to be 0.13, the “area with substrate ERLYFQS” value was found to be 0.0656, the “area with substrate ESLYFQS” value came out at 0.0971 and the “area with substrate ETLYFQS” value is 0.11. In addition, the “area with substrate EVLYFQS” value was determined as 0.0754, the “area with substrate EWLYFQS” value worked out at 0.0805 and the “area with substrate EYLYFQS” value is 0.105.
Regarding N116V, the “area with substrate EGLYFQS” value is 0.0702, the “area with substrate EILYFQS” value is 0.0904, the “area with substrate EKLYFQS” value came out at 0.0964 and the “area with substrate EPLYFQS” value was determined as 0.101. The “area with substrate EQLYFQS” value stood at 0.0946, the “area with substrate ERLYFQS” value came to 0.0958, the “area with substrate ESLYFQS” value was 0.104 and the “area with substrate EYLYFQS” value worked out at 0.094.
In the case of A170I, the “area with substrate EHLYFQS” value was determined as 0.0383 and the “area with substrate EILYFQS” value was determined as 0.0576.
Consider A170E, for which the “area with substrate EGLYFQS” value came out at 0.0512, the “area with substrate EILYFQS” value is 0.0556, the “area with substrate ESLYFQS” value came to 0.0625 and the “area with substrate ETLYFQS” value was found to be 0.0649. Besides, the “area with substrate EYLYFQS” value stood at 0.0602.
As to A170R, the “area with substrate EILYFQS” value came to 0.0437, the “area with substrate ELLYFQS” value worked out at 0.0598, the “area with substrate EMLYFQS” value worked out at 0.0533 and the “area with substrate ESLYFQS” value turned out to be 0.0635. Besides, the “area with substrate EWLYFQS” value was 0.037 and the “area with substrate EYLYFQS” value was 0.0553.
As to A170F, the “area with substrate EKLYFQS” value was found to be 0.0563.
For the variant N172A, the “area with substrate EKLYFQS” value amounted to 0.0268, the “area with substrate EPLYFQS” value came out at 0.0811, the “area with substrate ERLYFQS” value came out at 0.0857 and the “area with substrate EWLYFQS” value amounted to 0.0686. Further, the “area with substrate EYLYFQS” value turned out to be 0.0521.
